# From the supplement of paper PMC11417369
# ± gives the standard deviation of the averaged measurements. This is one part of the list.
# System: PfAP2-LT AP2 domain (GST-tagged)
# Assay: gcPBM binding intensity (ln(normalized median fluorescence intensity)); higher = stronger DNA binding
# Procedure, shortened: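 The binding buffer was 1× PBS containing 1% milk, 0.2 mg/ml BSA, 0.5% salmon testes DNA and 0.03% Triton X-100. In it, GST-tagged P. falciparum DNA-binding domains expressed in E. coli were applied for 1 h to an Agilent 4 × 180k array of primer-extended double-stranded 36-bp intergenic genomic probes plus negative controls. Binding intensity, read with Alexa488 anti-GST antibody and a 488 nm scan, is the highest Masliner-normalised natural-log median intensity across replicate spots of either probe orientation.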
row,Sequence,gcPBM binding intensity (ln)
1,ATGTATGGAAATTTTACACACAAGAGTAGTTTAAAA [CACACA_site1710],8.97 ± 0.44
2,GCATATGTTCAGCGTTGTACATAAAAAAAAACATAT [XGTACX_site5974],8.82 ± 0.44
3,TTAAATAAATATAAGTGTACATACACACTTTACAAT [XGTACX_site6348],8.77 ± 0.42
4,GCGTAATCTATTTGCACACTTATTTGTTCTTAAAAA [CACACA_site672],8.91 ± 0.33
5,GTTTAAAGTTGAACAAGTACACATTTATATAAGGCA [XGTACX_site351],8.67 ± 0.48
6,TTTATTTATTACTAAAGTACTAAATCATATAATTAT [XGTACX_site3654],8.4 ± 0.46
7,TTTTGAAAGTTTTTGTGTCCACATATATTTATATAT [XGTACX_site6563],8.94 ± 0.44
8,ATATCATAAGTAGAAACACACAATTAGATTTTTTCC [CACACA_site2353],8.79 ± 0.47
9,ATTATAAACCAGAATGCATGTAGATGAATCTTTTCT [TGCATGCA_site284],8.8 ± 0.45
10,TAAAAATATAAAACATGTACATATATGCATATATTT [XGTACX_site8093],8.86 ± 0.48
11,AAAAAAAATAATATTGTACACACATAAATTCTTTGT [CACACA_site8654],9.1 ± 0.57
12,TTTTATAAATACACACGTACGTGTGCATAACGTTTT [XGTACX_site3199],9.28 ± 0.24
13,TACTTTTTAAAAATGTTTTATATAATAAAAAGATAT [CACACA_negctrl_site678],8.3 ± 0.51
14,CTTATATTAAAACACACACACGCACAAAACAGAAAT [CACACA_site1462],9.88 ± 0.2
15,TAAGCCTTTCTATTATGTACTTATTAAAACATGTAG [XGTACX_site8022],8.67 ± 0.48
16,AAATTTATTTCTGTGTGTCCACAAAAAAAAATCTTT [XGTACX_site691],8.48 ± 0.49
17,TTTTTTTTTTTCAATAGTACTTTCCATTTACATATA [XGTACX_site3889],8.59 ± 0.53
18,TAATTGAGCAAATGAGTGCACAGCATAAAGTATAGT [GTGCAC_site9497],9.23 ± 0.51
19,AAATTTAAAATAAGTAGTACATAATATAAATAAATA [XGTACX_site3592],8.73 ± 0.42
20,GTACTTGTATTATGCACACATATAATTAAACATATA [CACACA_site3312],8.97 ± 0.34
21,TATAAAAGAAACTATACACACATATTTTAAATATTT [CACACA_site2753],8.79 ± 0.53
22,TATACATACCCACCCACACACAAAAAAAAAAAAAAA [CACACA_site4632],9.76 ± 0.3
23,TATACTCATAAATACACACACATATATATATATATA [CACACA_site5822],9.81 ± 0.014

row,Sequence,gcPBM binding intensity (ln)
1,GGGGGCTTTTATAAAAGTACAAAATGAATAAAAATT [XGTACX_site2393],8.82 ± 0.16
2,TTTTAAAAAAAATAAAAAATAAACAATAATAAATAA [CACACA_negctrl_site721],8.31 ± 0.69
3,TCTTTATTATTCGCCACACACATATATATATATATA [CACACA_site3077],9.66 ± 0.11
4,TATATATATAAAAATACACACATGAATGAATATATA [CACACA_site419],9.07 ± 0.42
5,AAAATATAATATAATGCACACATAAAAAAAAAATCA [CACACA_site7922],9.07 ± 0.49
6,TATCTGTAAATGGACACACACATATATATATATATA [CACACA_site5926],9.9 ± 0.49
7,ATATTGTGTTATAAATGTACACAATTTCCTTTCATA [XGTACX_site7481],8.71 ± 0.43
8,ATATATGTTCCTTTTACACACATAATCTTTTTTTTA [CACACA_site2661],9.14 ± 0.29
9,TTTTTAAAAATATACACACACAGATATTATATATAT [CACACA_site786],9.1 ± 0.26
10,AAAATATAATATAATGCACACATAAAAAAAAAAAAA [CACACA_site7989],8.98 ± 0.42
11,TTCATATAGAATTGTACACACAAAAACGACATTGTG [CACACA_site7061],8.98 ± 0.33
12,AAAAAAAAGGAAATAACACACATGTATATATCTATA [CACACA_site6856],8.99 ± 0.52
13,ATATATATATGTATGTATATATATATATATGTTTGA [GTGCAC_negctrl_site561],9.21 ± 0.057
14,GGGGACGCGGGTGGGGGTACTCACACTATGCAAAAT [XGTACX_site7745],9.52 ± 0.014
15,GTATCAATAAAAAACAGTACATATATAATATATTTA [XGTACX_site1083],8.76 ± 0.48
16,AAAATAATTTTATAGTTGCACTATATCGTATACAAT,8.84 ± 0.48
17,TGATTAAATCAAGAAAGTACAAAATGAAATATATAA [XGTACX_site4319],8.89 ± 0.32
18,ATATATTTTATACATACACACATATATATATTTTTT [CACACA_site3940],9.02 ± 0.44
19,TAAAGTGTAAAATTCACACACATATAAATAAATATA [CACACA_site6765],9.23 ± 0.45
20,AATTCAAAGAAAAACTGTACGTGTAGCAAACATCCT [XGTACX_site599],8.8 ± 0.43
21,TAATATGAAGATGGCAGTACTCTAGTCAATTTTTAC [XGTACX_site5375],8.77 ± 0.39
22,AAAATATATAAATATACATGCATAATTAATAGTATA [TGCATGCA_site804],8.87 ± 0.42
23,TTTAAAAAAAAAAATACACACATAAAAGTTTTCAAA [CACACA_site6471],8.62 ± 0.47

row,Sequence,gcPBM binding intensity (ln)
1,TACAAAAGCTATAACATTCACCACATTATAAAAATA [CACACA_negctrl_site1112],8.65 ± 0.48
2,TTTTCATTAAGATACTTATAATAGTTTATTAGTAAA [CACACA_negctrl_site586],8.16 ± 0.4
3,TTACAAATATTATAATGTACCCATTTTTTTTGCCTT [XGTACX_site6612],8.59 ± 0.64
4,TGAGATAAATGTGGTAGTACATTTTTTTTATATATA [XGTACX_site1918],8.49 ± 0.61
5,ATATCATCTTCTCTATCATTTTTTTTTTTTTTTTTT [CACACA_negctrl_site1220],8.62 ± 0.59
6,ATAAAAAAATCAGACACACACACGTAAACACATACA [CACACA_site5529],10.1 ± 0.16
7,CAAAAATTACCCTTGTGTACACATATATTATATGTA [XGTACX_site1124],8.99 ± 0.47
8,CTTTTTTTTTTTTTTTGTCCGTATGAGGGACCTATA [XGTACX_site8839],8.49 ± 0.74
9,TCCATTGTCACCTTTTGTACTTAAATTTTTTCCTCC [XGTACX_site1573],8.84 ± 0.42
10,ATGTTATAATTTAGTGTGCACATATTAAGAGGAACA,9.15 ± 0.42
11,ATATATATTTATATATGTACATATTTTTGTGTATTT [XGTACX_site1183],9.14 ± 0.44
12,AATAATAATAGAAACACACACACATTTTTAATAATA [CACACA_site1217],9.72 ± 0.3
13,ATATATATATATATATGTACATAATAATTTTATAAA [XGTACX_site5105],9.09 ± 0.18
14,CTACTTAATATTTGTACACACATATTTAACCTACTA [CACACA_site5725],9.23 ± 0.45
15,TTAATTATGTTTTGGTGTACAATAAATTGAATAGAT [XGTACX_site3306],8.52 ± 0.49
16,CTTTTTGAAATATTAACACACATTTTGTTAATTAAT [CACACA_site4046],8.73 ± 0.4
17,CACAGATAAATTAACACACACACACCCATATATATA [CACACA_site3960],10.05 ± 0.071
18,ATAATATAACACAAATGTACAAAAAATAAATAAATA [XGTACX_site385],8.94 ± 0.4
19,CATACTCACCAACACACACACACACCCATATAGAAT [CACACA_site592],10.2 ± 0.28
20,TATATATATACTTAATGTACATATATATATATATAT [XGTACX_site3102],9.215 ± 0.064
21,GAAAACGTTTGAAGTTGTACATATGTATAAAAAGAA [XGTACX_site2304],9.02 ± 0.54
22,ATAAAAATACAGTTAACACACATGTGTATTTATATG [CACACA_site7727],9.24 ± 0.3
23,TGTTATTTAAATAATTCTTTTTAAAAGATGAATTAT [CACACA_negctrl_site1226],8.08 ± 0.44

row,Sequence,gcPBM binding intensity (ln)
1,ATGGTCTGTTAAAGATGTACTTTTTAAAAATAAACG [XGTACX_site2583],8.36 ± 0.39
2,AAAAGGAAGATATATACACACATACAAATATATATA [CACACA_site5236],9.3 ± 0.45
3,CTATTTGGGGGAAGAGTGCATGACATGAATATAAAA,8.94 ± 0.23
4,TTGATGTATACAATGTAGATTATTTAATATTTCAAC [CACACA_negctrl_site73],8.6 ± 0.49
5,ATTAGTATTAGATGATGTACATTTATATTGAAATAT [XGTACX_site8537],8.63 ± 0.44
6,CTATATTATAAATATACACACATATCTTAAGTATAA [CACACA_site3096],8.79 ± 0.29
7,ATAAATTTTTAAAAATATGAATTATGTAATTTGTGA [CACACA_negctrl_site1621],8.42 ± 0.49
8,TTTTTTTTTTTTTTCACACACTAATAATATTATCAT [CACACA_site4417],8.85 ± 0.42
9,TATATATATATTTTTGCACACATTTTTTAAGGTACA [CACACA_site2145],9.26 ± 0.34
10,TTTATATGATACACACGTACATATACACATATACAC [XGTACX_site8123],9.28 ± 0.24
11,CATATAATAAATAGATGTACAGACTATATATATATA [XGTACX_site6575],9.46 ± 0.3
12,TATAATATTTATATAACACACATATAGATTTATTTA [CACACA_site6269],8.57 ± 0.42
13,AATAGGAAAGATTTTGCATGTGATATAAGTAATTTT [TGCATGCA_site657],8.62 ± 0.49
14,ATGTAAAATTAATATTGTACTTTTCCATCATGATAC [XGTACX_site2669],8.73 ± 0.49
15,TATTATTTAATCAAATGTACATAGAAAATGTATGTA [XGTACX_site4433],8.54 ± 0.46
16,TATATTAAAGGGGTTTCACACACATGTATAATTAAT [CACACA_site7950],9.11 ± 0.4
17,AAAAAAAAAAAAAAAAGTACAAATAAAAAAAAAATA [XGTACX_site4814],8.62 ± 0.7
18,TTGTTAATGGTACGAACACACATATAAAGATGCATA [CACACA_site2044],8.94 ± 0.42
19,TTATTCACTTCTTTTTAAAAAAAAAAAAAAAAAAAA [CACACA_negctrl_site223],7.88 ± 0.34
20,ATAATTTGTGGACACACACACACACCGACATATATA [CACACA_site8718],9.97 ± 0.33
